According to PubChem BioAssay AID504832 (National Center for Advancing Translational Sciences (NCATS), 2011):
The whole screen tested about 310,000 compounds, of which about 18,000 (5.8%) were called active. Inconclusive means that the source gave no clear call. Such entries were picked first, then a sample of the others. Calls follow the shape of the dose curve; as a rule, active = well fitted inhibition curve with a large enough effect; inconclusive = small, poorly fitted or top-dose-only effect, or another doubt; inactive = no such curve, though single readings can be large or run the other way. No potency is given beside an inconclusive call; the fits are too rough.
% is scaled to controls: 0 for no effect and ±100 for the full control effect; potency is read from the fitted curve at half-maximal effect; tags tell the direction and shape of the fitted curve.

Assay: Primary qHTS for delayed death inhibitors of the malarial parasite plastid, 48 hour incubation
Conditions: P. falciparum luciferase growth in erythrocytes; series mostly up to 28.7 µM; activity change, negative = inhibition: at the top concentration
How it was run: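 Luciferase-expressing parasites in RBCs, 2% Hct / 0.1% parasitemia final; RPMI 1640 + 0.5% Albumax; 37 C, 5% CO2, one generation; luminescence read-out, lower signal = inhibition.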
In the case of `COc1ccccc1OCCOCCOc1ccc(C)cc1Br`, the “activity change, negative = inhibition” value is reported as inactive: -7.6%. In the case of `CC(=O)Nc1ccccc1C(=O)C(=O)NCCc1ccccc1`, the “activity change, negative = inhibition” value is reported as inactive: 63.1%. In the case of `COCCCNC(=O)CCn1c(=O)c2ccccc2n(CC(=O)NCCC2=CCCCC2)c1=O`, the Potency is reported as inconclusive [inhibitor, full curve, poor fit]. With `Cn1c(SCC(=O)c2ccccc2)nnc1-c1cccs1` the “activity change, negative = inhibition” value was inactive: -0.543%. For `CCN(CC)c1ccc(C2Nc3cccc4cccc(c34)N2)cc1`, the Potency was active: 10.4 µM. For `O=C(NNc1cccc(Cl)n1)c1c(F)cccc1F`, the Potency was inconclusive [inhibitor, full curve, poor fit]. With `O=c1cc(-c2ccc(O)cc2)oc2ccc3ccccc3c12` the “activity change, negative = inhibition” value was inactive: -33.1%. With `Cc1cc(C(=O)CCl)c(C)n1-c1cccc([N+](=O)[O-])c1` the Potency was inconclusive [inhibitor, single point]. For `COc1ccc([C@@H]2[C@@H]3C(=O)N(C(C)(C)C)C(=O)[C@@H]3[C@]3(Cc4ccccc4)C(=O)N(c4cccc(Cl)c4)C(=O)N23)cc1`, the Potency was active: 6.57 µM. In the case of `O=C(NCCc1ccc(Cl)cc1)C1CCN(C(=O)N2CCOc3ccccc32)CC1`, the Potency is reported as inconclusive [inhibitor, single point]. In the case of `COc1ccc(C(=O)NCC2COc3ccccc3O2)cc1S(=O)(=O)N1CCOCC1` (stereo not given), the Potency is reported as inconclusive [inhibitor, single point]. For `COc1ccc(NC(=O)[C@H](COCc2ccccc2)NC(=O)OC(C)(C)C)cc1`, the Potency was inconclusive [inhibitor, partial curve]. For `CCOC(=O)c1csc(NC(=O)c2ccc(OC)c(OC)c2)n1`, the “activity change, negative = inhibition” value was inactive: 67.1%. In the case of `CCNc1c(NCC)c(=O)c1=O`, the “activity change, negative = inhibition” value is reported as inactive: -1.3%. In the case of `CCOC(=O)NCCOC(=O)Nc1ccc(Cl)cc1`, the “activity change, negative = inhibition” value is reported as inactive: -13.6%. For `O=C(NCC(c1ccco1)N1CCc2ccccc2C1)C(=O)Nc1cc(F)ccc1F` (stereo not given), the Potency was inconclusive [inhibitor, partial curve]. With `COc1ccccc1NS(=O)(=O)c1cc([N+](=O)[O-])ccc1N/N=C/c1sc(N2CCOCC2)nc1-c1ccccc1` the Potency was active: 3.29 µM. In the case of `CCOc1cccc(C(=O)NC(=S)Nc2ccccc2)c1`, the “activity change, negative = inhibition” value is reported as inactive: 245%. For `Cc1ccc(NC(=O)CSc2ncnc3ccccc23)cc1S(=O)(=O)N1CCOCC1`, the Potency was active: 11.7 µM. In the case of `Cc1cc2cc3c(cc2nc1SCC(=O)Nc1c(C)cccc1C)CCC3`, the Potency is reported as inconclusive [inhibitor, single point]. For `O=C(c1cccs1)N(Cc1ccco1)c1nc(-c2ccc(F)cc2)cs1`, the Potency was active: 13.1 µM. With `CN(C(=O)c1ccc(NC(=O)Cc2cccc(NC(=O)C3CCCN(C(=O)C4CCCC4)C3)c2)cc1)C1CCCC1` (stereo not given) the Potency was active: 11.7 µM. With `CCOc1ccc(N(CC(=O)Nc2ccc(OC)cc2)S(C)(=O)=O)cc1` the “activity change, negative = inhibition” value was inactive: 43.9%. In the case of `NNc1nncc2ccccc12`, the Potency is reported as inconclusive [inhibitor, partial curve, poor fit]. For `CC1CN(C(=O)/C=C/c2ccc(SC(F)F)cc2)CC(C)O1` (stereo not given), the “activity change, negative = inhibition” value was inactive: -22.4%. For `O=C1c2cccc3c(Cl)ccc(c23)C(=O)N1O`, the Potency was inconclusive [inhibitor, partial curve]. In the case of `Cc1ccc(S(=O)(=O)N2CCC(C(=O)Nc3ccccc3N3CCCC3)CC2)cc1`, the Potency is reported as inconclusive [inhibitor, full curve, poor fit]. With `CCOC(=O)[C@H]1[C@H]2COc3ccccc3[C@@H]2N2C(=O)c3cc(OC)ccc3NC(=O)[C@@]12C` the Potency was active: 5.22 µM. For `O=C(Nc1ccccc1)Nc1ccccc1C(=O)NCC1CC1`, the Potency was inconclusive [inhibitor, full curve]. In the case of `Cc1ccc(CN2CCN(Cc3nc(C(C)C)cs3)CC2CCO)cc1` (stereo not given), the Potency is reported as inconclusive [inhibitor, partial curve, poor fit]. In the case of `COc1ccc2[nH]c(=O)c(C(c3nnnn3C3CCCC3)N3CCN(Cc4ccc5c(c4)OCO5)CC3)cc2c1` (stereo not given), the Potency is reported as active: 11.7 µM. In the case of `CCOC(=O)c1sc(NC(=S)NC(=O)c2ccc(OC)cc2)nc1C`, the “activity change, negative = inhibition” value is reported as inactive: 34.3%. With `COc1ccc(-c2c[n+]3c(n2-c2ccccc2)SCC3)cc1` the Potency was inconclusive [inhibitor, full curve]. For `COc1ccc(CCNC(=O)c2ccc(CN3CCC(Cc4ccccc4)CC3)cc2)cc1`, the Potency was inconclusive [inhibitor, single point]. For `Cc1ccc(Nc2c3c(nc4ncnn24)CC(C)CC3)cc1` (stereo not given), the Potency was inconclusive [inhibitor, single point]. For `CS(=O)(=O)N(CC(=O)N1CCCC1)c1cccc(F)c1`, the “activity change, negative = inhibition” value was inactive: -4.2%. For `CCOc1ccc(N(CC(=O)NCc2ccccc2)C(=O)Cn2nnc(-c3ccc(C)o3)n2)cc1`, the Potency was inconclusive [inhibitor, partial curve, poor fit]. In the case of `Cc1nc(Nc2ccc3c(c2)OCCO3)c2oc3ccccc3c2n1`, the “activity change, negative = inhibition” value is reported as inactive: 12.4%. For `C=CCNC(=O)CCC(=O)NNc1nc2ccccc2c2nc(-c3ccccc3)nn12`, the Potency was inconclusive [inhibitor, single point]. With `CN(C)c1ccc(C(=O)Nc2nnc(C3=COCCO3)o2)cc1` the “activity change, negative = inhibition” value was inactive: 35.6%. For `CN1CCC(N(C)S(=O)(=O)c2ccc(NC(=O)COc3cccc(C(F)(F)F)c3)cc2)CC1`, the Potency was inconclusive [inhibitor, single point]. With `CCOC(=O)c1c(C)n(C)c2cc(-c3ccc(C)cc3)c(O)cc12` the Potency was inconclusive [inhibitor, single point]. For `CCOc1ccc2[nH]c3c(NCCC(C)C)ncnc3c2c1`, the Potency was inconclusive [inhibitor, full curve]. In the case of `C=CCn1c(-c2ccncc2)n[nH]c1=S`, the “activity change, negative = inhibition” value is reported as inactive: 15.5%. With `COc1ccc(C2=Nn3c(nnc3-c3ccncc3)SC2)cc1OC` the Potency was inconclusive [inhibitor, single point]. In the case of `C/C(=N\Nc1ccc(F)cc1)c1ccncc1`, the “activity change, negative = inhibition” value is reported as inactive: 20.7%. In the case of `Fc1ccc(N2CCN(c3nnnn3-c3ccccc3)CC2)cc1`, the Potency is reported as inconclusive [inhibitor, single point]. With `Cc1[nH]c2ccc(F)cc2c1CCN(Cc1cccnc1)C(=S)Nc1ccc(F)cc1` the Potency was active: 4.15 µM. With `CCOCCCNC(=O)CCCOc1ccccc1` the “activity change, negative = inhibition” value was inactive: 27.5%. In the case of `O=C1C2C3c4ccccc4C(c4ccccc43)C2c2nc3ccccc3n21` (stereo not given), the Potency is reported as inconclusive [inhibitor, single point]. In the case of `CCOc1ccc(NC(=O)Nc2cccc(C(=O)O)c2)cc1`, the “activity change, negative = inhibition” value is reported as inactive: 23.5%. In the case of `Cc1ccc(SCC2=NNC(=O)C2)cc1`, the Potency is reported as inconclusive [inhibitor, full curve, poor fit]. With `CC(NCCC(Cc1ccccc1)c1ccco1)c1ccccc1` (stereo not given) the Potency was inconclusive [inhibitor, single point]. With `CCN(CC)S(=O)(=O)c1ccc(N2CCOCC2)c(NS(=O)(=O)c2cc(C(C)(C)C)ccc2C)c1` the Potency was active: 0.0828 µM. For `CC(C)C[C@H](NC(=O)N1CC(=O)Nc2ccccc21)C(=O)N[C@H](Cc1ccccc1)C(=O)O`, the “activity change, negative = inhibition” value was inactive: -23.2%. For `O=C(CSc1nnc2scc(-c3ccccc3)n12)N1CCN(Cc2ccccc2)CC1`, the Potency was inconclusive [inhibitor, single point]. For `O=S(=O)(Nc1ccc(-n2cccc2)cc1)c1ccccc1`, the Potency was inconclusive [inhibitor, single point]. With `COc1cc(SC)ccc1C(=O)OCC(=O)N1CCCC1` the “activity change, negative = inhibition” value was inactive: 59.4%. With `CCN(C(=O)COC(=O)c1ccc(F)c(S(=O)(=O)N2CCOCC2)c1)C1CCS(=O)(=O)C1` (stereo not given) the “activity change, negative = inhibition” value was inactive: 11.5%. With `c1ccc(CCNc2ncnc3sccc23)nc1` the “activity change, negative = inhibition” value was inactive: 124%. With `CCS(=O)(=O)N1CCCC(C(=O)NCCN2CCC(Cc3ccccc3)CC2)C1` (stereo not given) the Potency was inconclusive [inhibitor, full curve, poor fit]. With `CSc1ncc2c(=O)[nH]c(-c3ccccc3)nc2n1` the Potency was inconclusive [inhibitor, single point]. With `Cc1ccc(OCCSc2cc(C)nc(N)n2)cc1` the Potency was inconclusive [inhibitor, partial curve, poor fit]. With `S=C(NCc1ccccn1)Nc1ccc(Cl)c(Cl)c1` the Potency was inconclusive [inhibitor, partial curve]. For `COc1ccc(OC)c(NC(=O)CC2Oc3ccccc3NC2=O)c1` (stereo not given), the “activity change, negative = inhibition” value was inactive: 38.3%. For `Cc1ccc([C@@H]2CC=C(C(=O)O)[C@H](c3cccc(Cl)c3)N2S(=O)(=O)c2ccc(C)cc2)cc1`, the Potency was inconclusive [inhibitor, single point]. With `CCOc1ccc(C2CC(c3ccccc3C)n3nc(N)nc3N2)cc1` (stereo not given) the “activity change, negative = inhibition” value was inactive: -28.3%. In the case of `COc1ccc(C(c2nnnn2CC2CCCO2)N2CCN(c3ccccc3)CC2)cc1` (stereo not given), the Potency is reported as inconclusive [inhibitor, full curve, poor fit]. In the case of `CCN(CC)c1cccc(OCC(=O)N(C)CCC#N)c1`, the Potency is reported as active: 10.4 µM. For `CCN(CCn1cccn1)C(=O)c1cc(COc2c(F)cccc2F)on1`, the “activity change, negative = inhibition” value was inactive: 12.5%. For `COc1ccc(C2=NN(C(=O)COC(=O)c3ccc(NC(=O)CC#N)cc3)C(c3ccco3)C2)cc1` (stereo not given), the Potency was active: 11.7 µM. With `Cc1c(-c2cccc(Cl)c2)nc2ccccc2c1C(=O)OCC(=O)N(C)C1CCS(=O)(=O)C1` (stereo not given) the Potency was inconclusive [inhibitor, single point]. In the case of `CCOC(=O)Cn1cc(C(=O)C2CC2)c2ccccc21`, the Potency is reported as inconclusive [inhibitor, single point]. For `CC(NCC(O)COc1ccc(Br)cc1)c1ccccc1` (stereo not given), the Potency was inconclusive [inhibitor, partial curve]. For `Cc1cc(C(=O)COC(=O)Cc2n[nH]c(=O)c3ccccc23)c(C)n1-c1cccc(C(F)(F)F)c1`, the Potency was active: 9.28 µM.
